Here are results for four variants from the GPR68 mutational scans of Howard et al. (2025).

Scores with a large standard error are left out. The source holds two more conditions with little spread; they are left out. Names with del lack the residues named; names with ins carry added residues between the positions named. For some of these results: The data file names ogerin without a concentration.

The chains are these.
B1: GPR68, Q15743 (parent)
chain: MGNITADNSSMSCTIDHTIHQTLAPVVYVTVLVVGFPANCLSLYFGYLQIKARNELGVYLCNLTVADLFYICSLPFWLQYVLQHDNWSHGDLSCQVCGILLYENIYISVGFLCCISVDRYLAVAHPFRFHQFRTLKAAVGVSVVIWAKELLTSIYFLMHEEVIEDENQHRVCFEHYPIQAWQRAINYYRFLVGFLFPICLLLASYQGILRAVRRSHGTQKSRKDQIQRLVLSTVVIFLACFLPYHVLLLVRSVWEASCDFAKGVFNAYHFSLLLTSFNCVADPVLYCFVSETTHRDLARLRGACLAFLTCSRTGRAREAYPLGAPEASGKSGAQGEEPELLTKLHPAFQTPNSPGSGGFPTGRLA

Data set [1] covers variants of B1. Description: cAMP reporter score (Enrich2 score, wild type = 0); higher = more signal; HEK293T, FACS bins.
Data set [2] covers variants of B1. Description: surface expression score (Enrich2 score, wild type = 0); higher = more signal; HEK293T, FACS bins.

As for MGNITADNSSMSCTIDHTIHQTLAPVVYVTVLVVGFPANCLSLYFGYLQIKARNELGVYLCNLTVADLFYICSLPFWLQYVLQHDNWSHGDLSCQVCGILLYENIYISVGFLCCISVDRYLAVAHPFRFHQFRTLKAAVGVSVVIWAKELLTSIYFLMHEEVIEDENQHRVCFEHYPIQAWQRAINYYRFLVGFLFPICLLLASYQGILRAVRRSHGTQKSRKDQIQRLVLSTVVIFMACFLPYHVLLLVRSVWEASCDFAKGVFNAYHFSLLLTSFNCVADPVLYCFVSETTHRDLARLRGACLAFLTCSRTGRAREAYPLGAPEASGKSGAQGEEPELLTKLHPAFQTPNSPGSGGFPTGRLA [L238M], the cAMP reporter score is 0.414 in data set [1] (pH 5.5); 0.356 in data set [1] (pH 6); 1.1 in data set [1] (pH 6, modulator: ogerin); 1.86 in data set [1] (pH 6.5, modulator: ogerin). In data set [2], the surface expression score was 1.27.

Take MGNITADNSSMSCTIDHTIHQTLAPVVYVTVLVVGFPANCLSLYFGYLQIKARNELGVYLCNLTVADLFYICSLPFWLQYVLQHDNWSHGDLSCQVCGILLYENIYISVGFLCCISVDRYLAVAHPFRFHQFRTLKAAVGVSVVIWAKELLTSIYFLMHEEVIEDENQHRVCFEHYPIQAWQRAINYYRFLVGFLFPICLLLASYQGILRAVRRSHGTQKSRKDQIQRLVLSTVVIFSACFLPYHVLLLVRSVWEASCDFAKGVFNAYHFSLLLTSFNCVADPVLYCFVSETTHRDLARLRGACLAFLTCSRTGRAREAYPLGAPEASGKSGAQGEEPELLTKLHPAFQTPNSPGSGGFPTGRLA [L238S]: the cAMP reporter score is 0.238 in data set [1] (pH 5.5); 0.515 in data set [1] (pH 6, modulator: ogerin); -0.705 in data set [1] (pH 6.5, modulator: ogerin). Also, the surface expression score in data set [2] is -0.306.

In the case of MGNITADNSSMSCTIDHTIHQTLAPVVYVTVLVVGFPANCLSLYFGYLQIKARNELGVYLCNLTVADLFYICSLPFWLQYVLQHDNWSHGDLSCQVCGILLYENIYISVGFLCCISVDRYLAVAHPFRFHQFRTLKAAVGVSVVIWAKELLTSIYFLMHEEVIEDENQHRVCFEHYPIQAWQRAINYYRFLVGFLFPICLLLASYQGILRAVRRSHGTQKSRKDQIQRLVLSTVVIFQACFLPYHVLLLVRSVWEASCDFAKGVFNAYHFSLLLTSFNCVADPVLYCFVSETTHRDLARLRGACLAFLTCSRTGRAREAYPLGAPEASGKSGAQGEEPELLTKLHPAFQTPNSPGSGGFPTGRLA [L238Q], the cAMP reporter score is -0.457 in data set [1] (pH 5.5); 0.75 in data set [1] (pH 6); 0.627 in data set [1] (pH 6, modulator: ogerin); -0.118 in data set [1] (pH 6.5, modulator: ogerin). The surface expression score in data set [2] is -2.79.

Take MGNITADNSSMSCTIDHTIHQTLAPVVYVTVLVVGFPANCLSLYFGYLQIKARNELGVYLCNLTVADLFYICSLPFWLQYVLQHDNWSHGDLSCQVCGILLYENIYISVGFLCCISVDRYLAVAHPFRFHQFRTLKAAVGVSVVIWAKELLTSIYFLMHEEVIEDENQHRVCFEHYPIQAWQRAINYYRFLVGFLFPICLLLASYQGILRAVRRSHGTQKSRKDQIQRLVLSTVVIFPACFLPYHVLLLVRSVWEASCDFAKGVFNAYHFSLLLTSFNCVADPVLYCFVSETTHRDLARLRGACLAFLTCSRTGRAREAYPLGAPEASGKSGAQGEEPELLTKLHPAFQTPNSPGSGGFPTGRLA [L238P]: the cAMP reporter score is -0.643 in data set [1] (pH 5.5); -0.431 in data set [1] (pH 6); -1.09 in data set [1] (pH 6, modulator: ogerin); -0.671 in data set [1] (pH 6.5, modulator: ogerin). The surface expression score in data set [2] is -1.01.
